Data taken from the RNAGym collection of RNA variant scans (doi:10.7554/elife.90254).
Read counts are not given, so values of variants with three or more changes are uncertain.

B1: LINE1-full (parent)
chain: UACGUAGGUGGUUUUCCCCUGAUAGUGCUAAGGGGGCCUGGAAGUUUGGACUGGGCAGAGCUCAACACAGCGUGGCAAAGUGGCUGUGGCUAGACUGCCUCUCUGGAUUCCUCGUCACUCAGCAGGGCAUCUCUGAGAGAAAUGCC

Variants of: B1
Test: self-cleavage, relative activity (ratio to wild type); higher = more cleavage; in vitro, sequencing; the parent is a self-cleaving ribozyme

**Q.** With G49A U62C U108C A121U A129G as the variant, how does the self-cleavage read?
**A.** 0.03

**Q.** With U39A A65G U104A U115A U134C as the variant, how does the self-cleavage read?
**A.** 0.16

**Q.** With U62C A140G U143C as the variant, how does the self-cleavage read?
**A.** 0.08

**Q.** For A57G U62C U108C, which self-cleavage is on record?
**A.** 0.5

**Q.** Which self-cleavage does the source give for C3U G106C A142G here?
**A.** 1.07

**Q.** Which self-cleavage does the source give for U14A G21U A79G U85A A121G A140G here?
**A.** 0.17

**Q.** Which self-cleavage does the source give for U12G U46A G82A A94U A142G U143C here?
**A.** 0.32

**Q.** For A24U A67U U100C, which self-cleavage is on record?
**A.** 0.38

**Q.** With U26A A57G A67U U81C C98G A117C as the variant, how does the self-cleavage read?
**A.** 0

**Q.** Which self-cleavage does the source give for U1C A124U A140G U143C here?
**A.** 0.83

**Q.** For U26A U85A A107G, which self-cleavage is on record?
**A.** 0.13

**Q.** For U9C U14A A57U U112A, which self-cleavage is on record?
**A.** 0.3

**Q.** Which self-cleavage does the source give for U46A A140G A141G here?
**A.** 1.08

**Q.** Which self-cleavage does the source give for U26C U96A U130G here?
**A.** 0.14

**Q.** With A43G U52C A129G as the variant, how does the self-cleavage read?
**A.** 1.92

**Q.** For U45C A78U A92G, which self-cleavage is on record?
**A.** 0.27

**Q.** With C71A U85C A94G as the variant, how does the self-cleavage read?
**A.** 0.02

**Q.** For U12C A57G U132C, which self-cleavage is on record?
**A.** 1.34

**Q.** For A42G U45A A67U A142G, which self-cleavage is on record?
**A.** 0.1

**Q.** With U15C G44A A77C as the variant, how does the self-cleavage read?
**A.** 0.3

**Q.** For G8A A31U A124G U130A, which self-cleavage is on record?
**A.** 0

**Q.** For U23A G114A A121U, which self-cleavage is on record?
**A.** 1.56

**Q.** With U81C U134A A141G as the variant, how does the self-cleavage read?
**A.** 2.13

**Q.** For U45G U62C A64G A67U U134C, which self-cleavage is on record?
**A.** 0

**Q.** With G10A A42G A43G U112C A129G as the variant, how does the self-cleavage read?
**A.** 2.83

**Q.** With U12C A67U A69G as the variant, how does the self-cleavage read?
**A.** 0.1

**Q.** For U12A G35A A136G, which self-cleavage is on record?
**A.** 1.41

**Q.** Which self-cleavage does the source give for U13C U29C C90U here?
**A.** 0.12

**Q.** Which self-cleavage does the source give for U13C U14A A142G here?
**A.** 0.91

**Q.** With U14C U46C U62C G114U U132C as the variant, how does the self-cleavage read?
**A.** 0.1

**Q.** With U12A A42G U109A G122U G139A as the variant, how does the self-cleavage read?
**A.** 0.77

**Q.** For U14C G54U U87C, which self-cleavage is on record?
**A.** 0.16

**Q.** Which self-cleavage does the source give for U13C A57G C63U A67G here?
**A.** 0.27

**Q.** With G10A G34C A67G C76U U104A U134C as the variant, how does the self-cleavage read?
**A.** 1.06

**Q.** For A43G A64G G83A U102G, which self-cleavage is on record?
**A.** 0

**Q.** With U1C C103A U104A as the variant, how does the self-cleavage read?
**A.** 0.92

**Q.** For G53A A57G U108C A124G, which self-cleavage is on record?
**A.** 1

**Q.** Which self-cleavage does the source give for G33A A59G C133U A140G here?
**A.** 0.04

**Q.** For A31G G97U U100C U109A, which self-cleavage is on record?
**A.** 0.06

**Q.** With U45C A59G C68U as the variant, how does the self-cleavage read?
**A.** 0.08

**Q.** With A43G U45C U112C as the variant, how does the self-cleavage read?
**A.** 0

**Q.** With U102C U132C A141C as the variant, how does the self-cleavage read?
**A.** 2.45

**Q.** For U1G A69U A136G A140G, which self-cleavage is on record?
**A.** 0.24

**Q.** With A42G U47C A64U as the variant, how does the self-cleavage read?
**A.** 0.9

**Q.** For U5C U62C A65G, which self-cleavage is on record?
**A.** 0.34

**Q.** For A30C A50U U91C, which self-cleavage is on record?
**A.** 0

**Q.** With U13C U26C U100C as the variant, how does the self-cleavage read?
**A.** 2.47

**Q.** Which self-cleavage does the source give for U12C U26C G35C A59U G60A U115A G139U here?
**A.** 0.09

**Q.** Which self-cleavage does the source give for A22U U47C A57G C128U here?
**A.** 0.73

**Q.** For C3U U100C U102A U108C, which self-cleavage is on record?
**A.** 0.97

**Q.** With U9A A64G U85C G114A as the variant, how does the self-cleavage read?
**A.** 0.19

**Q.** Which self-cleavage does the source give for A65G U109C U115C U119A here?
**A.** 0

**Q.** With U29C U85C A129G A141G as the variant, how does the self-cleavage read?
**A.** 0

**Q.** For G55C C71U A92G, which self-cleavage is on record?
**A.** 0.04

**Q.** Which self-cleavage does the source give for U12C C63A A79G U102C U112A here?
**A.** 0.14

**Q.** With C19A U47C A50G A107U U132C as the variant, how does the self-cleavage read?
**A.** 1.31

**Q.** With U45C G74A U85A U130A A141G as the variant, how does the self-cleavage read?
**A.** 0.02

**Q.** With U26A A92G A107G G122A as the variant, how does the self-cleavage read?
**A.** 0.18

**Q.** Which self-cleavage does the source give for C51G U85A U102C A141G here?
**A.** 0.09

**Q.** With G44A A67U A77G as the variant, how does the self-cleavage read?
**A.** 0.14

**Q.** With G35C U73C U96C A142G as the variant, how does the self-cleavage read?
**A.** 0

**Q.** With A42G G88A A92G as the variant, how does the self-cleavage read?
**A.** 0.07

**Q.** With U9C A140G U143C as the variant, how does the self-cleavage read?
**A.** 1.02

**Q.** Which self-cleavage does the source give for U29C U85C U102C A142G here?
**A.** 0.25

**Q.** With A69G A121U A142C as the variant, how does the self-cleavage read?
**A.** 1.2

**Q.** Which self-cleavage does the source give for A43G C61A U85C A129G here?
**A.** 0.03

**Q.** Which self-cleavage does the source give for G33A A57G A79G here?
**A.** 0.81

**Q.** Which self-cleavage does the source give for U13C U23A G33A A43G here?
**A.** 0.72

**Q.** With U23A U85C U87A A117G as the variant, how does the self-cleavage read?
**A.** 0.14

**Q.** Which self-cleavage does the source give for G32A G33A U104C here?
**A.** 1.05

**Q.** With G10U U15C A22G A67C G83A as the variant, how does the self-cleavage read?
**A.** 0.14

**Q.** Which self-cleavage does the source give for U15C U23A G41A A64G here?
**A.** 0.3

**Q.** For U12C A22G A24G U26A G93A U115C, which self-cleavage is on record?
**A.** 0.28

**Q.** Which self-cleavage does the source give for U52A U81C U143C here?
**A.** 0.93

**Q.** With U1C U26A C99A U102C as the variant, how does the self-cleavage read?
**A.** 0.42

**Q.** For U1C U87C A140C, which self-cleavage is on record?
**A.** 0.12

**Q.** Which self-cleavage does the source give for C37A U73A U100C A129G U132C here?
**A.** 1.98

**Q.** With U39A U62C U87A C128A as the variant, how does the self-cleavage read?
**A.** 0.04

**Q.** With U47C U87C A124G as the variant, how does the self-cleavage read?
**A.** 0

**Q.** Which self-cleavage does the source give for A57U A59C A138U here?
**A.** 0.14

**Q.** Which self-cleavage does the source give for C16U U85C C99U A121G here?
**A.** 0

**Q.** Which self-cleavage does the source give for U13A G41A U85A here?
**A.** 0

**Q.** With C16U A31U A124U as the variant, how does the self-cleavage read?
**A.** 1
